Out of some 48,000 compounds screened, about 450 (0.94%) were called active. Not shown: some 19% with an inconclusive outcome. Calls follow the shape of the dose curve; as a rule, active = well fitted inhibition curve with a large enough effect; inconclusive = small, poorly fitted or top-dose-only effect; inactive = no such curve, though single readings can be large or run the other way. The list shows a part of the results.

A short description of the test: Primary qHTS for Identification of Small Molecule Inhibitors of Huntingtin Promoter Activity. Also: nearly all actives have a fitted effect of over 50% in size. The following applies: HEK293 HTT promoter firefly luciferase reporter (activity 0% = vehicle and -100% = no light), 24 h; series mostly up to 57.5 µM; activity change, negative = inhibition: at the top concentration. Summed up: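 Luminescence was read after Dual-Glo reagent and a 10 min room-temperature incubation. Values were normalized to vehicle (0% activity) and zero RLU (-100% activity). Reporter HEK293 cells had been exposed to compounds (up to 57.5 uM final) for 24 h.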
As to `CCc1ccc(CN2C(=O)c3ccccc3C2C(=O)NCCc2ccc(OC)c(OC)c2)cc1` (stereo unspecified), the “activity change, negative = inhibition” value is inactive: -14.5%.

As to `COc1ccc(NC(=O)c2cc3c(=O)[nH]c4ccccc4c3n2C)cc1Cl`, the “activity change, negative = inhibition” value was inactive: -1.5%.

Take `COc1ccc(CC(=O)NCc2nc3cccnc3n2Cc2ccc(F)cc2)cc1OC`: the “activity change, negative = inhibition” value is inactive: -12.2%.

For `Cc1ccccc1NC(=O)c1sc2nc3c(cc2c1N)CCCC3`, the “activity change, negative = inhibition” value is inactive: 17.9%.

For the molecule `CCOc1cc2[nH]c(=O)n(Cc3ccc(C(=O)NCCN(CC)CC)cc3)c(=O)c2cc1OCC`, the “activity change, negative = inhibition” value was inactive: -13%.

As for `CCCCNc1sc(S(=O)(=O)CC)nc1S(=O)(=O)c1ccc(C)cc1`, the “activity change, negative = inhibition” value is inactive: -19.6%.

For the molecule `CNS(=O)(=O)c1cn(CC(=O)Nc2ccc(F)cc2F)cc1S(=O)(=O)NC`, the “activity change, negative = inhibition” value is inactive: -6.57%.

Consider `Cc1ccc(N2CC(c3nnc(Cc4ccc(Cl)cc4)o3)CC2=O)cc1` (stereo unspecified), for which the “activity change, negative = inhibition” value was inactive: -31.5%.

As to `CC(=O)Nc1cc(C(=O)NCc2ccccc2)ccc1Sc1ccc(C)cc1`, the “activity change, negative = inhibition” value was inactive: -19.2%.

Turning to `Cc1cccc(C(=O)Nc2ccc(-c3nc4ccccc4s3)c(C)c2)c1`, the “activity change, negative = inhibition” value is inactive: 31.5%.

Regarding `CO[C@H]1C[C@@H]2CC[C@@H](C)[C@@](O)(O2)C(=O)C(=O)N2CCCC[C@@H]2C(=O)O[C@H]([C@H](C)C[C@@H]2CC[C@H](OC(=O)C(C)(CO)CO)[C@H](OC)C2)CC(=O)[C@H](C)C=C(C)[C@@H](O)[C@@H](OC)C(=O)[C@H](C)C[C@H](C)C=CC=CC=C1C`, the “activity change, negative = inhibition” value was inactive: -16.7%.

With `CCN(c1ccc(OC)cc1)S(=O)(=O)c1c(C(=O)N2CCCCCC2)c(C)n(C)c1C`, the “activity change, negative = inhibition” value was inactive: -9.91%.

`COc1ccc(N2CCN(CC(O)COc3ccccc3C(C)(C)C)CC2)cc1` (stereo unspecified): the “activity change, negative = inhibition” value is inactive: -23.7%.

Take `CN(C(=O)CSc1cn(CC(=O)N2CCCCCC2)c2ccccc12)c1ccccc1`: the “activity change, negative = inhibition” value is inactive: -13.5%.

With `CCOc1ccc(NC(=O)Cn2c(=O)n(CCc3ccccc3)c(=O)c3c4c(sc32)CN(C(C)=O)CC4)cc1`, the “activity change, negative = inhibition” value was inactive: -1.73%.

With `CCc1ccc(NC(=O)CSC2=Nc3ccccc3C3=NC(CCC(=O)NCc4ccccc4OC)C(=O)N23)cc1` (stereo unspecified), the “activity change, negative = inhibition” value was inactive: -12.2%.

`CCOCCCNC(=O)c1cnc2sc(N3CCCCCC3)nn2c1=O`: the “activity change, negative = inhibition” value was inactive: 9.64%.

As to `Cc1nn(-c2ccccc2)c(OC(=O)c2ccc(Br)cc2)c1S(=O)(=O)c1ccccc1`, the “activity change, negative = inhibition” value was inactive: -15.4%.

Turning to `CCOc1ccc(OCC)c(NC(=O)c2cc(C)nc3c2c(C)nn3-c2cccc(Cl)c2C)c1`, the “activity change, negative = inhibition” value was inactive: -9.35%.

`Cn1c(=O)c2sccc2n2c(CCCC(=O)Nc3ccc(F)cc3F)nnc12`: the “activity change, negative = inhibition” value is inactive: -8.53%.

As for `Cc1cc2nn(-c3ccc(Cl)cc3)nc2cc1NC(=O)C(C)C`, the “activity change, negative = inhibition” value was inactive: -78.3%.

`C[C@@H]1C[C@H]2[C@@H]3CCC4=CC(=O)C=C[C@]4(C)[C@@]3(F)[C@@H](O)C[C@]2(C)[C@@]1(O)C(=O)CO`: the “activity change, negative = inhibition” value is inactive: 16.1%.

For `COc1ccc2c(c1)c1c(c(=O)n(-c3ccccc3C)c(=O)n1Cc1ccccc1C)n2C`, the “activity change, negative = inhibition” value was inactive: 0.449%.

Regarding `O=C(c1ccc2c(c1)OCO2)c1cn(Cc2ccc(F)cc2)c2ccccc2c1=O`, the “activity change, negative = inhibition” value is inactive: -25.2%.

Regarding `Cn1nc(C(=O)N2CCN(c3ccccc3)CC2)c2c1-c1ccccc1SC2`, the “activity change, negative = inhibition” value was inactive: -15.1%.

As for `CCCCN(CC)C(=O)Cn1c(=O)n(-c2ccc(OCC)cc2)c(=O)c2c3c(sc21)CCC3`, the “activity change, negative = inhibition” value was inactive: 3.6%.

Turning to `CCCOC(=O)c1c(NC(=O)c2nc3ncccn3n2)sc(C(=O)OCC)c1C`, the activity change, negative = inhibition was inactive: -10.7% [at 11.5 µM].

For the molecule `CC(=O)c1cccc(-n2c(=O)c3c4c(sc3n(Cc3ccccc3Cl)c2=O)CN(C(C)=O)CC4)c1`, the “activity change, negative = inhibition” value is inactive: 0.985%.

With `COc1cc(OC)c(C2C=C(C(=O)O)Nc3ncnn32)cc1OC` (stereo unspecified), the “activity change, negative = inhibition” value is inactive: -6.31%.

For the molecule `COc1ccccc1CNC(=O)c1cn(C)c2ccc(S(=O)(=O)N3CCC(C)CC3)cc2c1=O`, the “activity change, negative = inhibition” value was inactive: 0.759%.

For the molecule `Cc1cc(C)c(NC(=O)CSc2nc(C)cc(C)c2C#N)c(C)c1`, the “activity change, negative = inhibition” value was inactive: -0.642%.

For the molecule `O=C(CN1Cc2ccccc2C1=O)Nc1cc(F)ccc1F`, the “activity change, negative = inhibition” value is inactive: -10.2%.

`COc1ccc(Nc2ccc3cc(S(=O)(=O)N4CCCC4)ccc3n2)cc1Cl`: the “activity change, negative = inhibition” value was inactive: 0%.

On to `COc1ccccc1OCC(=O)N(Cc1ccc(N(C)C)cc1)CC1CCCO1` (stereo unspecified), for which the “activity change, negative = inhibition” value is inactive: -4.91%.

Turning to `CCOc1ccc(-n2c(SCC(=O)Nc3ccccc3OC)nc3c(oc4ccccc43)c2=O)cc1`, the “activity change, negative = inhibition” value was inactive: -12.5%.

For `CC(=O)c1ccc(NC(=O)C2CCN(S(=O)(=O)c3ccc4c(c3)CCCN4C(=O)C3CCC3)CC2)cc1`, the “activity change, negative = inhibition” value is inactive: -6.56%.

Consider `Cc1ccc2oc(=O)c3cnn(CC(=O)N(C)c4ccc(F)cc4)c3c2c1`, for which the “activity change, negative = inhibition” value is inactive: -7.21%.

On to `CCCSc1nc(=O)c2c(n1C)NC(=O)CC2c1cccc(F)c1F` (stereo unspecified), for which the “activity change, negative = inhibition” value is inactive: -11.4%.

`CCc1ccccc1NC(=O)CN(Cc1ccccc1)S(=O)(=O)c1ccc2nc(C)sc2c1`: the “activity change, negative = inhibition” value was inactive: -23%.

Regarding `COc1ccc(N2CCN(C(=O)Cc3c(C(=O)O)c(C)cn3C)CC2)cc1`, the “activity change, negative = inhibition” value was inactive: -16.3%.

With `CCOC(=O)c1c(NC(=O)CCCOc2ccc(C(C)(C)C)cc2)sc2c1CCC2`, the “activity change, negative = inhibition” value was inactive: -9.11%.

For `COc1ccc(-n2nc3ccc(NC(=O)COc4ccc(C)c(C)c4)cc3n2)cc1`, the “activity change, negative = inhibition” value was inactive: 13.2%.

On to `CCc1cc(C(=O)Nc2cnn(Cc3ccc(F)cc3)c2)no1`, for which the activity change, negative = inhibition was inactive: -8.68% [at 11.5 µM].

Take `CC(C)Oc1ccc(C(=O)N[C@H](CNC(=O)CN(C)C)Cc2ccc(-c3cn4cccc([C@H](C)O)c4n3)cc2)cc1Cl`: the “activity change, negative = inhibition” value is inactive: -19.3%.

In the case of `CC(=O)c1cccc(NC(=O)c2cnn(-c3cccc(C)c3)c2-n2cccc2)c1`, the “activity change, negative = inhibition” value was inactive: -14.2%.

In the case of `O=C(O)COC(=O)Cc1ccccc1Nc1c(Cl)cccc1Cl`, the “activity change, negative = inhibition” value is inactive: -3.91%.

The values above are taken from PubChem BioAssay AID1508623 (National Center for Advancing Translational Sciences (NCATS), 2021).
